The values below come from PMC4336329 (PLoS ONE, 2015).

Molecules are shown by their SMILES. The whole screen tested about 310,000 compounds, of which about 2,200 (0.71%) showed an effect of 50% or more. The effect is printed as a negative number. The list shows a part of the results.

human ether-à-go-go-related gene (hERG) potassium channel, sequence (Q12809 whole entry, looked up): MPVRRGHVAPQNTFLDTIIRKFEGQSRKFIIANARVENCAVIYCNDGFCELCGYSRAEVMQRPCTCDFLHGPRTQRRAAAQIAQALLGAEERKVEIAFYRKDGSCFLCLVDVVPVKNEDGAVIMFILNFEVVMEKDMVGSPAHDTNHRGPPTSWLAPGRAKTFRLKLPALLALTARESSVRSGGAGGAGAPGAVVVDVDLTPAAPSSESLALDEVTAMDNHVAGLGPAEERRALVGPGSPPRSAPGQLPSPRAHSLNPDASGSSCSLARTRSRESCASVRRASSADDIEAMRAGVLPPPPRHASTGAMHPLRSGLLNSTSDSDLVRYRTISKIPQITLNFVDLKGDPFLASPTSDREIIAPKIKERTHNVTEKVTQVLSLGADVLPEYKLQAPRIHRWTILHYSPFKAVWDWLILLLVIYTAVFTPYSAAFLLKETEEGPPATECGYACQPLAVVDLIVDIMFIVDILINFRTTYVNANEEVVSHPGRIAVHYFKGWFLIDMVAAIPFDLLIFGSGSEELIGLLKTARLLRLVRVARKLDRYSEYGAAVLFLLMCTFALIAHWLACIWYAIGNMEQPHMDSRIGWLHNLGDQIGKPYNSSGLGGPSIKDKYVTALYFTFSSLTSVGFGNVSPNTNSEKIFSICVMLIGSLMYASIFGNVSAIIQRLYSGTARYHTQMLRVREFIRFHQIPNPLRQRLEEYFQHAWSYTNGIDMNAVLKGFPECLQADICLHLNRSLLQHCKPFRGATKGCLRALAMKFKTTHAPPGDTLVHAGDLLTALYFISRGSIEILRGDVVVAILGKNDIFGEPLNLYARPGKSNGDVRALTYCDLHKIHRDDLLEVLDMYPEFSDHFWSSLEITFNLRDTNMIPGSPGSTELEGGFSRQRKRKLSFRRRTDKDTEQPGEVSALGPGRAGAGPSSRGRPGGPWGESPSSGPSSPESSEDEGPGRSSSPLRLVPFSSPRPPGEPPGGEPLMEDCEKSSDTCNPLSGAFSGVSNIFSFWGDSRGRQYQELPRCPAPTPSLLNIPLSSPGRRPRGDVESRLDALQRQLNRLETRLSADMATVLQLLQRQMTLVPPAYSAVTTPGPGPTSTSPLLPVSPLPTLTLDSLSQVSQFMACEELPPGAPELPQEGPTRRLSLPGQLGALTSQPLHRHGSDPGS

The assay concerns the target human ether-à-go-go-related gene (hERG) potassium channel (human, UniProt Q12809). Nature of the assay: primary screen, population patch clamp on CHO cells stably expressing hERG.
On to `Cc1nc(C(=O)N2CCCC(Nc3ccc(C)c(C)c3)C2)cs1` (stereo not drawn), for which the “hERG current change (%, negative = inhibition) at 1uM” value came to 0.558%.
As to `CCN(CC)CCOC(=O)/C=C/c1ccccc1.Cl`, the “hERG current change (%, negative = inhibition) at 1uM” value is on record as 4.06%.
Turning to `O=C(COc1ccccc1)Nc1cc(C(F)(F)F)ccc1N1CCCC1`, the “hERG current change (%, negative = inhibition) at 1uM” value worked out at 16.1%.
With `Cc1ccc(C(=O)N2CCN(c3ncnc4c3cnn4-c3ccccc3)CC2)cc1`, the “hERG current change (%, negative = inhibition) at 1uM” value is recorded as 14.9%.
As to `CCC1(c2ccc(F)cc2)NC(=O)N(CC(=O)N2c3ccccc3NC(=O)CC2C)C1=O` (stereo not drawn), the “hERG current change (%, negative = inhibition) at 1uM” value is -33.2%.
With `Cc1ccc(S(=O)(=O)N2CCC(C(=O)OCC(=O)N3CCCC3=O)CC2)cc1C`, the “hERG current change (%, negative = inhibition) at 1uM” value was determined as 14%.
As to `CCCOc1ccc(N2C(=O)CC(SCCc3nc4ccccc4[nH]3)C2=O)cc1` (stereo not drawn), the “hERG current change (%, negative = inhibition) at 1uM” value was 4.82%.
The result for `COc1ccc(OC)c(/C=C/C(=O)c2ccc(Cl)cc2)c1` reads 3.58%; that for `Cc1c(/C=N/NC(=O)C(C)(C)Oc2ccc(Cl)cc2)cnn1C`, -4.73%; that for `Cc1ccc(OCC(=O)N2CCC(N3CC(C)CC(C)C3)CC2)cc1` (stereo not drawn), -6.48%.
To `O=C(O)C(c1ccccc1)C1(O)CCCC1` (stereo not drawn) belongs 9.08%.
The result for `CC1=C(C(=O)Nc2ccccc2C)C(c2ccc(C)o2)n2c(s/c(=C/c3ccccc3)c2=O)=N1` (stereo not drawn) reads 10.9%.
Regarding `Cc1[nH]nc2c1C1(CCN(C(=O)c3ccccc3)CC1)C(C#N)=C(N)O2`, the “hERG current change (%, negative = inhibition) at 1uM” value is reported as 6.34%.
Turning to `O=C(Nc1ccccc1)Nc1cccc2nsnc12`, the “hERG current change (%, negative = inhibition) at 1uM” value stood at 6.8%.
Take `COc1ccc(OC)c(-c2nn(-c3ccccc3)cc2C(=O)NCC(c2cccs2)N2CCOCC2)c1` (stereo not drawn): the “hERG current change (%, negative = inhibition) at 1uM” value is 5.12%.
For the compound `Cc1ccsc1CNCCc1ccccc1F`, the “hERG current change (%, negative = inhibition) at 1uM” value is recorded as 13.5%.
With `CCCNC(=O)c1cc(S(=O)(=O)N2CCCCC2)c[nH]1`, the “hERG current change (%, negative = inhibition) at 1uM” value is listed as 1.32%.
The result for `Cc1c(NC(=S)NC(=O)COc2ccccc2)c(=O)n(-c2ccccc2)n1C` reads 6.11%; that for `CCOC(=O)N1CCN(C(=O)C2CCC(=O)N2C(C)C)CC1` (stereo not drawn), 1.28%; that for `CCn1c(SCC(=O)c2ccc3c(c2)Cc2ccccc2-3)nnc1-c1ccc(N)cc1`, 1.74%.
For the compound `Cc1ccc(S(=O)(=O)N2CCC(C(=O)N[C@@H](C)C(=O)Nc3ccc(F)cc3)CC2)cc1`, the “hERG current change (%, negative = inhibition) at 1uM” value turned out to be 5.35%.
Take `Cc1cccc(N2C(=O)NC(=O)/C(=C\c3ccc(N4CCOCC4)cc3)C2=O)c1`: the “hERG current change (%, negative = inhibition) at 1uM” value is given as 17.2%.
For the compound `Cc1cc(/C=C(/C#N)C(=O)Nc2ccc(Cl)cc2)c(C)n1-c1cccnc1`, the “hERG current change (%, negative = inhibition) at 1uM” value is 0.418%.
In the case of `CCOC(=O)C1CCN(CC(C)(C)NS(=O)(=O)c2ccccc2)CC1`, the “hERG current change (%, negative = inhibition) at 1uM” value is reported as 11.5%.
Regarding `COc1ccc(C2C(C#N)=C(N)Oc3c2c(-c2ccccc2)nn3-c2ccccc2)c(OC)c1OC` (stereo not drawn), the “hERG current change (%, negative = inhibition) at 1uM” value is 6.17%.
With `COCCNC(=O)NC(=O)CN1C(=O)NC(Cc2c[nH]c3ccccc23)C1=O` (stereo not drawn), the “hERG current change (%, negative = inhibition) at 1uM” value turned out to be 14.6%.
For `COc1ccc(N2CCN(/C(=N\S(=O)(=O)c3ccccc3)Nc3nc(C)cc(C)n3)CC2)cc1`, the “hERG current change (%, negative = inhibition) at 1uM” value amounted to 10.5%.
The result for `Cc1c(C)n2c(SCC(=O)Nc3ccc4c(c3)OCCO4)nnc2[nH]c1=O` reads 11.6%; that for `CCOC(=O)/C(C(N)=NC)=C(\O)c1ccccc1`, 5.36%; that for `CC1CN(C(=O)CCC(=O)N2CCOCC2)c2ccccc2O1` (stereo not drawn), -3.09%.
Regarding `O=C(CCn1ccc([N+](=O)[O-])n1)NC1CCCCCC1`, the “hERG current change (%, negative = inhibition) at 1uM” value was found to be 3.22%.
As for `CCCN1CCN(CCCNC(=O)c2cc3c(=O)[nH]c4ccccc4c3s2)CC1`, the “hERG current change (%, negative = inhibition) at 1uM” value was found to be 1.68%.
As for `Cc1[nH]c2ccccc2c1/C=C/C(=O)c1ccccc1`, the “hERG current change (%, negative = inhibition) at 1uM” value is reported as 10.4%.
With `COc1ccccc1Nc1nc(N)nc(CN2CCN(Cc3ccccc3)CC2)n1`, the “hERG current change (%, negative = inhibition) at 1uM” value is -76.6%.
Take `Cc1cc(C)c2c(c1)-c1c(ssc1=S)C(C)(C)N2C(=O)CSc1nncn1C`: the “hERG current change (%, negative = inhibition) at 1uM” value is given as -0.0873%.
Consider `CCOc1cc(CNCCO)cc(Br)c1OCc1ccccc1Cl.Cl`, for which the “hERG current change (%, negative = inhibition) at 1uM” value was found to be 12.4%.
Turning to `O=C(O)/C=C/C(=O)Nc1ccc(OC(F)(F)F)cc1`, the “hERG current change (%, negative = inhibition) at 1uM” value is reported as 18.7%.
The result for `O=C1[C@@H]2CSCN2C(=O)CN1Cc1c(F)cccc1Cl` reads 10.7%; that for `N#Cc1c2c(c(NCCOCCO)n3c1nc1ccccc13)CCCC2`, 8.37%; that for `CCC1SC2=NCN(c3ccccc3)CN2C1=O` (stereo not drawn), 16.9%.
On to `CCOC(=O)C1CCCN(C(=O)C(C)Oc2ccc(Cl)cc2Cl)C1` (stereo not drawn), for which the “hERG current change (%, negative = inhibition) at 1uM” value came out at 4.21%.
Regarding `O=C(O)CCCC(=O)Nc1cccc([N+](=O)[O-])c1`, the “hERG current change (%, negative = inhibition) at 1uM” value amounted to 12.2%.
For `CCOCCCNCC(=O)Nc1ccc(S(=O)(=O)NC(C)CC)cc1.O=CO` (stereo not drawn), the “hERG current change (%, negative = inhibition) at 1uM” value worked out at 10.9%.
For `COc1ccc(CCNC(=O)C(=O)NCC2OCCN2C(=O)c2ccc(Cl)cc2)cc1OC` (stereo not drawn), the “hERG current change (%, negative = inhibition) at 1uM” value is 7.64%.
Regarding `CC1C(C)C(O)(c2ccccc2)CCN1C` (stereo not drawn), the “hERG current change (%, negative = inhibition) at 1uM” value was 13.4%.
To `N#Cc1c2ccc(O)cc2n2ccccc12` belongs 22%.
Turning to `Nn1c(SCC(=O)Nc2nc3ccccc3s2)nncc1=O`, the “hERG current change (%, negative = inhibition) at 1uM” value turned out to be 11.6%.
As for `COc1ccc(Cn2nnnc2CN2CCc3ccccc3C2)cc1.Cl`, the “hERG current change (%, negative = inhibition) at 1uM” value is listed as -0.13%.
As for `Cc1cccc(C)c1-n1nnnc1SCSc1nnnn1-c1c(C)cccc1C`, the “hERG current change (%, negative = inhibition) at 1uM” value amounted to 8.64%.
For the compound `CCn1c(SCC(=O)N2CCc3ccccc3C2)nc2sc(C)c(C)c2c1=O`, the “hERG current change (%, negative = inhibition) at 1uM” value is on record as 4.78%.
Regarding `COCCC(=O)N1CCC(n2nccc2NC(=O)c2ccccc2C)CC1`, the “hERG current change (%, negative = inhibition) at 1uM” value came to 16%.
With `COc1ccccc1NC(=O)Cn1nnc(-c2ccccc2NC(=O)c2cnccn2)n1`, the “hERG current change (%, negative = inhibition) at 1uM” value is 11.2%.
Regarding `Cc1c(Cc2ccccc2)c(NCCN(C)C)n2c(nc3ccccc32)c1C#N`, the “hERG current change (%, negative = inhibition) at 1uM” value is 4.4%.
For `Cc1ccccc1Oc1ncnc2sccc12`, the “hERG current change (%, negative = inhibition) at 1uM” value was 9.26%.
For the compound `CC(C)OC(=O)C1CC(C)(O)C(=O)C(C(=O)OC(C)C)C1c1ccc([N+](=O)[O-])cc1` (stereo not drawn), the “hERG current change (%, negative = inhibition) at 1uM” value came out at 1.73%.
For `CCOc1ccc(C(=O)NCc2ccc3c(c2)OCO3)cc1`, the “hERG current change (%, negative = inhibition) at 1uM” value is listed as 26.1%.
`O=C(Nc1ccc2c(c1)OCCO2)c1cc(F)c(F)cc1Cl`: the “hERG current change (%, negative = inhibition) at 1uM” value is 14.2%.
